Test systems include WM115; WM1716; WM1745; WM3526; WM3619; WM451Lu.
What all share (assay): cell count relative to DMSO control; melanoma cells; higher = more viable cells
What all share (settings): library dose: low library concentration; 72 h

Each structure is given as a SMILES string. This is one part of the list. Many values rest on one well or one pass, so single values are uncertain.
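Also: cell number obtained by counting DAPI-stained nuclei in high-throughput microscope images with image analysis software, screen run in 1,536-well plates.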

On to `C[C@@H](Oc1cc(-c2cnn(C3CCNCC3)c2)cnc1N)c1c(Cl)ccc(F)c1Cl` [Crizotinib] + CCCS(=O)(=O)Nc1ccc(F)c(C(=O)c2c[nH]c3ncc(Cl)cc23)c1F [PLX4720] (first compound 0.2 µM, partner dose 0.08 µM), for which the cell count in the experiment with WM115 stood at 85.7%; with WM1716 it was 119%; in the experiment on WM1745, 90.6%; in the experiment on WM3526, 89.3%; in the experiment with WM3619 it was 105%; in the experiment with WM451Lu, 97.3%.
Consider `CN1CCN(c2ccc3nc(-c4c(N)c5c(F)cccc5[nH]c4=O)[nH]c3c2)CC1` [Dovitinib] + COc1ccc(-c2ccc3c(N4CCOCC4)nc(N4C[C@@H](C)O[C@@H](C)C4)nc3n2)cc1CO [KU0063794] (first compound 0.1 µM, partner dose 0.02 µM), for which the cell count in the experiment with WM115 worked out at 104%; with WM1716, 115%; in the experiment with WM1745, 98.7%; in the experiment on WM3526, 120%; in the experiment on WM3619, 119%; in the experiment on WM451Lu, 102%.
`C[C@@H](Oc1cc(-c2cnn(C3CCNCC3)c2)cnc1N)c1c(Cl)ccc(F)c1Cl` [Crizotinib] + Oc1nc(-c2ccc(C(F)(F)F)cc2)nc2c1CSCC2 [XAV939] (first compound 0.2 µM, partner dose 2 µM): the cell count in the experiment on WM115 was determined as 88.5%; with WM1716, 62.7%; with WM1745 it was 89.3%; in the experiment with WM3526 it was 123%; in the experiment on WM3619 it was 90.8%; in the experiment on WM451Lu it was 93.1%.
On to `CNC(=O)c1cc(Oc2ccc(NC(=O)Nc3ccc(Cl)c(C(F)(F)F)c3)cc2)ccn1` [sorafenib] + OCc1c[nH]c2ccccc12 [Indole-3-carbinol] (first compound 0.4 µM, partner dose 0.8 µM), for which the cell count was determined as 104% in the experiment on WM115; 86.4% in the experiment with WM1716; 97.8% in the experiment on WM1745; 109% with WM3526; 85.8% in the experiment with WM3619; 125% in the experiment on WM451Lu.
In the case of `CN1CCN(c2ccc3nc(-c4c(N)c5c(F)cccc5[nH]c4=O)[nH]c3c2)CC1` [Dovitinib] + Cc1nc(Nc2ncc(C(=O)Nc3c(C)cccc3Cl)s2)cc(N2CCN(CCO)CC2)n1 [dasatanib] (first compound 0.1 µM, partner dose 0.004 µM), the cell count turned out to be 88.6% with WM115; 91.4% in the experiment on WM1716; 68.9% in the experiment with WM1745; 83.2% in the experiment with WM3526; 114% in the experiment with WM3619; 68% in the experiment on WM451Lu.
Take `CN1CCN(c2ccc3nc(-c4c(N)c5c(F)cccc5[nH]c4=O)[nH]c3c2)CC1` [Dovitinib] + CCc1ccc(CCOc2ccc(CC3SC(=O)NC3=O)cc2)nc1 [pioglitazone] (first compound 0.1 µM, partner dose 2 µM): the cell count in the experiment with WM115 came to 108%; in the experiment with WM1716 it was 91.1%; with WM1745 it was 80.5%; in the experiment with WM3526 it was 89.2%; in the experiment with WM3619, 133%; in the experiment on WM451Lu, 95.9%.
As to `C=CCNC1=C2C[C@@H](C)C[C@H](OC)[C@H](O)[C@@H](C)/C=C(\C)[C@H](OC(N)=O)[C@@H](OC)/C=C\C=C(/C)C(=O)NC(=CC1=O)C2=O` [Tanespimycin] + COc1cc2c(Oc3ccc4[nH]c(C)cc4c3F)ncnc2cc1OCCCN1CCCC1 [cediranib] (first compound 0.002 µM, partner dose 0.4 µM), the cell count with WM115 amounted to 90.8%; in the experiment with WM1716, 104%; in the experiment with WM1745 it was 1.23%; in the experiment on WM3526, 85.4%; in the experiment on WM3619 it was 107%; in the experiment on WM451Lu, 94.7%.
On to `CS(=O)(=O)CCNCc1ccc(-c2ccc3ncnc(Nc4ccc(OCc5cccc(F)c5)c(Cl)c4)c3c2)o1` [lapatinib] + COc1cc2c(Oc3ccc4[nH]c(C)cc4c3F)ncnc2cc1OCCCN1CCCC1 [cediranib] (first compound 0.8 µM, partner dose 0.4 µM), for which the cell count with WM115 turned out to be 99%; with WM1716, 97%; with WM1745, 92.9%; in the experiment with WM3526 it was 83.7%; in the experiment with WM3619 it was 115%; in the experiment on WM451Lu, 76.4%.
Regarding `CNC(=O)c1cc(Oc2ccc(NC(=O)Nc3ccc(Cl)c(C(F)(F)F)c3)cc2)ccn1` [sorafenib] + Cc1ccc(NC(=O)c2cccc(N(C)C)c2)cc1NC(=O)c1ccc(O)cc1 [ZM336372] (first compound 0.4 µM, partner dose 2 µM), the cell count in the experiment with WM115 is 106%; in the experiment with WM1716, 96.7%; in the experiment on WM1745 it was 80.8%; with WM3526, 76.3%; in the experiment with WM3619, 106%; in the experiment on WM451Lu, 111%.
On to `CN1CCN(c2ccc3nc(-c4c(N)c5c(F)cccc5[nH]c4=O)[nH]c3c2)CC1` [Dovitinib] + CS(=O)(=O)CCNCc1ccc(-c2ccc3ncnc(Nc4ccc(OCc5cccc(F)c5)c(Cl)c4)c3c2)o1 [lapatinib] (first compound 0.1 µM, partner dose 0.8 µM), for which the cell count in the experiment on WM115 stood at 95.1%; with WM1716 it was 111%; in the experiment on WM1745, 86.7%; with WM3526, 103%; in the experiment on WM3619, 95.3%; in the experiment on WM451Lu it was 101%.
With `C[C@@H](Oc1cc(-c2cnn(C3CCNCC3)c2)cnc1N)c1c(Cl)ccc(F)c1Cl` [Crizotinib] + NCC(=O)Nc1ccc(-n2nc(C(F)(F)F)cc2-c2ccc3c(ccc4ccccc43)c2)cc1 [OSU03012] (first compound 0.2 µM, partner dose 1 µM), the cell count was found to be 75.4% in the experiment on WM115; 98% with WM1716; 92.9% with WM1745; 52.8% with WM3526; 116% with WM3619; 78.7% in the experiment on WM451Lu.
Turning to `C=CCNC1=C2C[C@@H](C)C[C@H](OC)[C@H](O)[C@@H](C)/C=C(\C)[C@H](OC(N)=O)[C@@H](OC)/C=C\C=C(/C)C(=O)NC(=CC1=O)C2=O` [Tanespimycin] + O=C(CCCCCCC(=O)Nc1ccccc1)NO [vorinostat] (first compound 0.002 µM, partner dose 0.08 µM), the cell count turned out to be 79.5% in the experiment on WM115; 107% with WM1716; 79.2% in the experiment on WM1745; 87.6% in the experiment on WM3526; 84.1% with WM3619; 90.3% in the experiment on WM451Lu.
With `CS(=O)(=O)CCNCc1ccc(-c2ccc3ncnc(Nc4ccc(OCc5cccc(F)c5)c(Cl)c4)c3c2)o1` [lapatinib] + CCCCCCCCCCCC1=C(O)C(=O)C=C(O)C1=O [Embelin] (first compound 0.8 µM, partner dose 1.2 µM), the cell count amounted to 105% with WM115; 104% with WM1716; 97.2% with WM1745; 94% in the experiment with WM3526; 95.9% with WM3619; 104% in the experiment on WM451Lu.
`CNC(=O)c1cc(Oc2ccc(NC(=O)Nc3ccc(Cl)c(C(F)(F)F)c3)cc2)ccn1` [sorafenib] + COc1ccc(Cl)c(Nc2nc3ccccc3nc2NS(=O)(=O)c2cccc(NC(=O)C(C)(C)N)c2)c1 [XL147] (first compound 0.4 µM, partner dose 0.8 µM): the cell count in the experiment on WM115 is 98.2%; in the experiment on WM1716 it was 86.3%; in the experiment with WM1745 it was 81.8%; in the experiment on WM3526 it was 121%; in the experiment with WM3619, 75.4%; in the experiment with WM451Lu it was 144%.
As to `CN1CCN(c2ccc3nc(-c4c(N)c5c(F)cccc5[nH]c4=O)[nH]c3c2)CC1` [Dovitinib] + OCCn1cc(-c2cnc3nnn(Cc4ccc5ncccc5c4)c3n2)cn1 [PF04217903] (first compound 0.1 µM, partner dose 1 µM), the cell count stood at 91.4% in the experiment on WM115; 92% in the experiment on WM1716; 111% with WM1745; 85.8% in the experiment with WM3526; 108% with WM3619; 96.4% with WM451Lu.
As for `C=CCNC1=C2C[C@@H](C)C[C@H](OC)[C@H](O)[C@@H](C)/C=C(\C)[C@H](OC(N)=O)[C@@H](OC)/C=C\C=C(/C)C(=O)NC(=CC1=O)C2=O` [Tanespimycin] + Cc1nc(Nc2ncc(C(=O)Nc3c(C)cccc3Cl)s2)cc(N2CCN(CCO)CC2)n1 [dasatanib] (first compound 0.002 µM, partner dose 0.004 µM), the cell count was 88.9% in the experiment on WM115; 99% in the experiment on WM1716; 49.2% in the experiment with WM1745; 83.2% with WM3526; 64.8% in the experiment on WM3619; 86.3% with WM451Lu.
For `C=CCNC1=C2C[C@@H](C)C[C@H](OC)[C@H](O)[C@@H](C)/C=C(\C)[C@H](OC(N)=O)[C@@H](OC)/C=C\C=C(/C)C(=O)NC(=CC1=O)C2=O` [Tanespimycin] + O=C1NC(=O)/C(=C/c2ccc(-c3ccc(F)cc3O)o2)S1 [AS252424] (first compound 0.002 µM, partner dose 1 µM), the cell count was determined as 90.5% in the experiment with WM115; 110% in the experiment with WM1716; 79.5% in the experiment on WM1745; 84.8% with WM3526; 82.7% in the experiment with WM3619; 103% in the experiment on WM451Lu.
`CNC(=O)c1cc(Oc2ccc(NC(=O)Nc3ccc(Cl)c(C(F)(F)F)c3)cc2)ccn1` [sorafenib] + CCc1ccc(CCOc2ccc(CC3SC(=O)NC3=O)cc2)nc1 [pioglitazone] (first compound 0.4 µM, partner dose 2 µM): the cell count stood at 109% in the experiment on WM115; 108% in the experiment on WM1716; 93.9% with WM1745; 96.9% in the experiment on WM3526; 118% in the experiment on WM3619; 86.9% in the experiment on WM451Lu.
As for `CS(=O)(=O)CCNCc1ccc(-c2ccc3ncnc(Nc4ccc(OCc5cccc(F)c5)c(Cl)c4)c3c2)o1` [lapatinib] + COCC[n+]1c2c(n(Cc3cnccn3)c1C)C(=O)c1ccccc1C2=O [YM155] (first compound 0.8 µM, partner dose 0.0004 µM), the cell count stood at 93% with WM115; 89.5% in the experiment on WM1716; 79.7% with WM1745; 88.4% in the experiment on WM3526; 107% in the experiment on WM3619; 82.8% in the experiment with WM451Lu.
Regarding `C[C@@H](Oc1cc(-c2cnn(C3CCNCC3)c2)cnc1N)c1c(Cl)ccc(F)c1Cl` [Crizotinib] + CO[C@@H]1[C@H](N(C)C(=O)c2ccccc2)C[C@H]2O[C@]1(C)n1c3ccccc3c3c4c(c5c6ccccc6n2c5c31)C(=O)NC4 [Midostaurin] (first compound 0.2 µM, partner dose 0.08 µM), the cell count came to 68% in the experiment on WM115; 69.1% with WM1716; 81.6% in the experiment with WM1745; 90.5% in the experiment with WM3526; 87.4% in the experiment with WM3619; 109% in the experiment with WM451Lu.
Consider `CS(=O)(=O)CCNCc1ccc(-c2ccc3ncnc(Nc4ccc(OCc5cccc(F)c5)c(Cl)c4)c3c2)o1` [lapatinib] + Cn1nnc2c(C(N)=O)ncn2c1=O [temozolomide] (first compound 0.8 µM, partner dose 2 µM), for which the cell count in the experiment on WM115 came out at 100%; in the experiment with WM1716, 101%; in the experiment on WM1745, 96.3%; in the experiment on WM3526, 91.9%; in the experiment with WM3619 it was 112%; in the experiment on WM451Lu, 98.7%.
Take `C=CCNC1=C2C[C@@H](C)C[C@H](OC)[C@H](O)[C@@H](C)/C=C(\C)[C@H](OC(N)=O)[C@@H](OC)/C=C\C=C(/C)C(=O)NC(=CC1=O)C2=O` [Tanespimycin] + COC(=O)c1sccc1S(=O)(=O)Nc1ccc(Nc2ccccc2)cc1OC [GSK0660] (first compound 0.002 µM, partner dose 1 µM): the cell count with WM115 was 103%; in the experiment on WM1716, 101%; with WM1745 it was 105%; in the experiment on WM3526, 113%; in the experiment with WM3619, 83.5%; in the experiment on WM451Lu it was 102%.
Regarding `C=CCNC1=C2C[C@@H](C)C[C@H](OC)[C@H](O)[C@@H](C)/C=C(\C)[C@H](OC(N)=O)[C@@H](OC)/C=C\C=C(/C)C(=O)NC(=CC1=O)C2=O` [Tanespimycin] + Cc1cc(N2CCOCC2)cc2[nH]c(-c3c(NC[C@@H](O)c4cccc(Cl)c4)cc[nH]c3=O)nc12 [BMS536924] (first compound 0.002 µM, partner dose 0.2 µM), the cell count in the experiment with WM115 came to 97.2%; in the experiment on WM1716 it was 108%; in the experiment on WM1745 it was 82.8%; in the experiment on WM3526 it was 77.3%; in the experiment with WM3619, 83%; with WM451Lu it was 77.1%.
Take `CS(=O)(=O)CCNCc1ccc(-c2ccc3ncnc(Nc4ccc(OCc5cccc(F)c5)c(Cl)c4)c3c2)o1` [lapatinib] + CC(=O)c1c(C)c2cnc(Nc3ccc(N4CCNCC4)cn3)nc2n(C2CCCC2)c1=O [palbociclib] (first compound 0.8 µM, partner dose 0.04 µM): the cell count was 89.6% in the experiment on WM115; 75.4% with WM1716; 75% in the experiment on WM1745; 55.4% in the experiment on WM3526; 66.2% in the experiment on WM3619; 86.2% in the experiment with WM451Lu.
